Assay results: the supplement of paper PMC10126150
Sequences with one replicate were seen in a single cluster, so their values are uncertain.

System: ATP
Test: switch fluorescence ratio, 500 uM ATP over buffer (Cy3 cluster intensity, sum of 5 cycles each) (fold (ratio)); higher = stronger signal-on switching upon ATP binding; sequences stand for … in TCGTCGGCAGCGTCAGATGTGTATAAGAGACAGTTTTTTTTTTTTTTTTTTTTTTTTT…TC
Conditions: aptamer strand: ATP DNA aptamer (quencher-CACCTGGGGGAGTATTGCGGAGGAAGG + anchor), 100 nM annealed; ATP concentration: 500 uM; one replicate
How it was run: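 Cy3-labelled switching-strand clusters on a modified Illumina MiSeq flow-cell were annealed to 100 nM quencher-labelled ATP aptamer, imaged in selection buffer, then imaged after 15 min with 500 uM ATP at 22 °C. Five buffer/ATP cycles ran, with NaOH stripping and re-annealing between them. The fluorescence ratio is summed target-cycle over summed buffer-cycle Cy3 intensity per cluster, averaged per switch-domain sequence. Clusters outside 100-1000 RFU were excluded.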
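Also: ATP exposure 15 min at 22 °C before imaging.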

Row | Sequence | switch fluorescence ratio
1 | TCGGGATGTG | 1.02
2 | TCGGGATTCC | 1.78
3 | TCGGGATTT | 0.968
4 | TCGGGCCTG | 0.99
5 | TCGGGCGCAC | 1.12
6 | TCGGGCGTTT | 0.974
7 | TCGGGCTCTC | 0.996
8 | TCGGGTAGGA | 0.976
9 | TCGGGTCATA | 0.97
10 | TCGGGTTAAG | 0.972
11 | TCGGTAACGC | 1.11
12 | TCGGTAGG | 0.964
13 | TCGGTATGCC | 0.958
14 | TCGGTATTAA | 0.994
15 | TCGGTCACGT | 0.965
16 | TCGGTCTCCA | 1
17 | TCGGTGACGA | 1.06
18 | TCGGTGTCCC | 0.987
19 | TCGGTTCCGA | 1
20 | TCGTAAAACT | 1.13
21 | TCGTAACA | 0.948
22 | TCGTAACGGA | 0.988
23 | TCGTACAGG | 1.01
24 | TCGTACCACT | 1.01
25 | TCGTACTGCG | 1.04
26 | TCGTAGATGA | 1.04

Row | Sequence | switch fluorescence ratio
27 | TCGTATATGC | 1.33
28 | TCGTATCTCT | 1.03
29 | TCGTATGGAT | 0.973
30 | TCGTATTAGT | 1.05
31 | TCGTATTCAT | 0.969
32 | TCGTCACTTT | 0.994
33 | TCGTCGCATA | 1.84
34 | TCGTCTGGGT | 1.02
35 | TCGTGAGCAC | 1.3
36 | TCGTGAGTTA | 0.959
37 | TCGTGATAGC | 1.23
38 | TCGTGATGCT | 0.92
39 | TCGTGATTCC | 1.08
40 | TCGTGCCTGG | 0.989
41 | TCGTGGAGCA | 1
42 | TCGTGGCTTG | 1
43 | TCGTGTGCCC | 0.971
44 | TCGTGTGGAT | 1.01
45 | TCGTTCACCC | 1.01
46 | TCGTTCAGGT | 0.98
47 | TCGTTCTGT | 0.968
48 | TCGTTCTGTT | 0.965
49 | TCGTTGGCGC | 0.941
50 | TCGTTGGTTC | 0.949
51 | TCGTTGTATC | 1.01
52 | TCGTTGTGCG | 1.08

Row | Sequence | switch fluorescence ratio
53 | TCGTTGTGTT | 1.02
54 | TCGTTGTTA | 0.959
55 | TCGTTTAAGT | 0.989
56 | TCTAAAATGG | 1.02
57 | TCTAACCGCC | 1.7
58 | TCTAACGCAC | 2.1
59 | TCTAACTATT | 0.961
60 | TCTAACTCTC | 1.05
61 | TCTAAGAAGG | 0.948
62 | TCTAAGGAAC | 0.999
63 | TCTAATTTCA | 0.942
64 | TCTACCTCG | 1.05
65 | TCTACGCTGG | 1.72
66 | TCTAGACCCG | 0.961
67 | TCTAGACTAT | 0.961
68 | TCTAGGACAG | 1.03
69 | TCTAGGGATG | 1.02
70 | TCTAGGTCTG | 0.975
71 | TCTAGTATGA | 0.973
72 | TCTAGTCCTT | 1.02
73 | TCTAGTCTC | 1.02
74 | TCTAGTGTT | 0.989
75 | TCTATAACC | 1.07
76 | TCTATAGAAG | 1.02
77 | TCTATATTTT | 0.963
78 | TCTATCATAG | 0.998

Row | Sequence | switch fluorescence ratio
79 | TCTATCCGC | 2.11
80 | TCTATCGCTC | 1.33
81 | TCTATGCAAG | 1.07
82 | TCTATTAATT | 0.991
83 | TCTATTGTAT | 0.979
84 | TCTCACCAGC | 0.982
85 | TCTCACCGTT | 0.996
86 | TCTCACCTTA | 1.08
87 | TCTCACGTTT | 0.994
88 | TCTCAGCTC | 1.27
89 | TCTCAGGGAG | 0.978
90 | TCTCATGCTG | 0.977
91 | TCTCCAGGAG | 1.26
92 | TCTCCGGCCA | 2.9
93 | TCTCCGGTGG | 1.01
94 | TCTCCTTTTA | 1.67
95 | TCTCGAAAGC | 1.2
96 | TCTCGACGGT | 1.06
97 | TCTCGGGGGA | 1.11
98 | TCTCGGTTTT | 1.07
99 | TCTCGTACTC | 1.15
100 | TCTCGTGCCT | 0.967
101 | TCTCTAATGT | 1.02
